Switch fluorescence ratio data for 78 sequences are collected here from the supplement of paper PMC10126150.

Values marked as one replicate rest on one cluster of the flow cell; about a third of the high ones do not repeat.
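Also: ATP exposure 15 min at 22 °C before imaging.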

The subject of the series is ATP. The experiment in a line: switch fluorescence ratio, 500 uM ATP over buffer (Cy3 cluster intensity, sum of 5 cycles each) (fold (ratio)); higher = stronger signal-on switching upon ATP binding; sequences stand for … in TCGTCGGCAGCGTCAGATGTGTATAAGAGACAGTTTTTTTTTTTTTTTTTTTTTTTTT…TC. The settings on record: aptamer strand: ATP DNA aptamer (quencher-CACCTGGGGGAGTATTGCGGAGGAAGG + anchor), 100 nM annealed; ATP concentration: 500 uM; one replicate. The gist of the method:
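Switching-strand clusters labelled with Cy3 on a modified Illumina MiSeq flow-cell were annealed to 100 nM quencher-labelled ATP aptamer, imaged in selection buffer, and re-imaged after 15 min with 500 uM ATP at 22 °C. This was done over five cycles with NaOH stripping and re-annealing in between. The fluorescence ratio is summed target-cycle over summed buffer-cycle Cy3 intensity per cluster, averaged per switch-domain sequence, excluding clusters outside 100-1000 RFU.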
With GTTGACATAG, the switch fluorescence ratio worked out at 0.992.
For TCCCCGTCAT the value was 1.95.
For CTACCGAGCG the value was 1.27; for TCGTTGAAGT, 0.999; for TGACACAATT, 1.1.
The value for ATCCTCTGG was 1.02; that for ACTTACATCG was 1.13.
With TTTACTCAAT, the switch fluorescence ratio came to 1.87.
The value for AATACTATAT was 1.04.
The value for GATGTGGTT was 0.971; that for GCTACAAGAA was 1.04; that for TGCTGAGGGA was 0.974.
The value for CAAATATTAT was 1.01; that for AGCTGGTTAT was 0.961; that for CCCCTCTG was 1.08.
Consider TAGAGGTGTA, for which the switch fluorescence ratio was determined as 1.
For GGACGCTAAG the value was 1.01; for ATACTAGGTG, 1.74; for CGTGTCGAAA, 1.02.
As for TAACGCGGGG, the switch fluorescence ratio worked out at 1.04.
For AAGGAGATTA, the switch fluorescence ratio worked out at 1.
For AAAATTGAGG the value was 1; for CGCACTGGCT, 1.04; for ATTGTCAAAA, 0.99.
For CTCTCGACGG the value was 1.03; for AGTCACTCGT, 1.01.
For AGTTAACAAG the value was 1.02.
Turning to TTAGTGATAT, the switch fluorescence ratio is 0.994.
For ATCTTAGATA the value was 1.05; for AATTTAACTT, 1.03.
For the sequence CATATAGTCT, the switch fluorescence ratio is 0.98.
The value for AGCTCGAAGC was 1.04; that for AATTGAATGC was 1.01.
The value for TGTGTGGGGC was 0.969.
On to CTTGCAGCGT, for which the switch fluorescence ratio worked out at 0.996.
The value for CCAAAATGCT was 1.02.
Consider GATGCTGCTG, for which the switch fluorescence ratio amounted to 1.02.
For CGGATAAAAG the value was 0.98; for ATATATGGA, 1.04.
The value for CTGCATTTTC was 1.5; that for ACTATTTAAT was 1; that for GGTAGCGATG was 1.07.
On to CCTAGAGCCT, for which the switch fluorescence ratio was found to be 1.15.
The value for GTGTATAACG was 1.05; that for TTTACATCGT was 0.987; that for GGATGTCGAT was 0.971.
For TAGTCCGAGT, the switch fluorescence ratio came out at 1.01.
For GACACAAAGG the value was 1.07; for CAAACATCTT, 1.04.
For GTGCAAAAT the value was 1.01; for CCGGCAGCTG, 1.12.
As for ACGAGGGGG, the switch fluorescence ratio is 0.999.
For TAATATCGGC the value was 0.994; for AAGTGCAGTC, 1.08; for TGTGCCGATG, 0.976.
For GAGATAATTT the value was 0.994; for GATGGTTTAA, 0.988.
For AACATTGTTG the value was 1; for CAAACATATC, 1.02.
For the sequence TTGTGCGATC, the switch fluorescence ratio stood at 1.14.
For TACGTCCAAC the value was 1.15; for GAGGTTGAAC, 0.915; for GACCGCTCTC, 1.64.
For AATCGTAAAA the value was 0.974.
The value for AAAGAAGTGA was 0.968; that for GTGAAAAGCT was 1.04.
As for CTTACGCGTG, the switch fluorescence ratio stood at 1.03.
The value for TAGTCCGACA was 1.08; that for GACTACGAAT was 1.27.
The value for GATAGACTGG was 1.02; that for GGGACTAACA was 0.995; that for TCGGTGAGGA was 1.03.
In the case of CGATTCGCTG, the switch fluorescence ratio was found to be 0.974.
For TGCATTCTTA the value was 1.01.
For ACCTTCCCCC the value was 3.36.
The value for ATTCGATCG was 0.964.
In the case of GAGAAAAAGA, the switch fluorescence ratio amounted to 1.
The value for CATACACGGG was 1.05.
